Experimental data: PubChem BioAssay AID1508624 (National Center for Advancing Translational Sciences (NCATS), 2021)
The whole screen tested about 48,000 compounds, of which about 120 (0.25%) were called active. Not shown: some 4% with an inconclusive outcome. Calls come from the whole dose curve; as a rule, active = well fitted activation curve with a large enough effect; inconclusive = small, poorly fitted or top-dose-only effect, or another doubt; inactive = no such curve, though single readings can be large or run the other way. The list shows a part of the results.

Assay: Primary qHTS for Identification of Small Molecule Activators of Huntingtin-Antisense Promoter Activity; note: nearly all actives have a fitted effect of over 55% in size
Settings: HEK293 HTT-AS promoter firefly luciferase reporter (activity 0% = vehicle and -100% = no light), 24 h; series mostly up to 57.5 µM; activity change, positive = activation: at the top concentration
In short: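 Firefly luciferase readout (Dual-Glo, 10 min RT) after 24 h, 37 °C compound exposure (final up to 57.5 uM) of HEK293 reporter cells cultured 24 h beforehand; PTC124 at 50 uM final as control inhibitor; activity scaled vehicle 0%, zero RLU -100%.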

Activity change, positive = activation, inactive:
CCCCNC(=O)NS(=O)(=O)c1ccc(C)cc1 -13.1%, COc1ccccc1CNC(=O)C1CCCN(c2nnc(-n3c(C)ccc3C)s2)C1 (stereo unspecified) -10.1%, CC1=C(C(=O)OCC2CCCCC2)C(c2ccccc2F)CC(=O)N1 (stereo unspecified) -35.2%, Cc1cc(O)cc2c1O[C@](C)(CCC[C@H](C)CCC[C@H](C)CCCC(C)C)CC2 -4.05%, Cc1ccc(NC(=O)Cn2c(=O)n(CCCCC(=O)NCCc3ccccc3)c(=O)c3ccccc32)c(C)c1 -1.02%, O=C(Nc1ccc(F)cc1F)c1cc(-c2ccccc2O)no1 -2.33%, Cc1nn2c(=O)cc(COC(=O)c3ccc(NC(=O)C4CCCCC4)cc3)nc2s1 -13%, COc1cc(NC(=O)Cn2nc(C(F)(F)F)c3c2CCCC3)c(OC)cc1Cl -28.4%, CCCCOC(=O)c1ccc(NC(=O)c2cc3c(=O)n4cccc(C)c4nc3n2C)cc1 -8.69%, COCCNC(=O)CCCn1c(=O)c2cc(OC)c(OC)cc2n(CC(=O)Nc2ccc(F)cc2)c1=O 2.95%, O=C(CSc1nc(=O)[nH]c2c1CCCC2)Nc1ccccc1C(F)(F)F -3.5%, CCOC(=O)C1CCN(CCC(=O)Nc2ccc(Br)c(C)c2)CC1 -0.457%, CCOc1ccc(CNC(=O)c2ccc(-c3nc(CS(=O)(=O)c4ccccc4)c(C)o3)cc2)cc1 -13.5%, Cc1nn2c(=O)cc(COC(=O)c3cccc(NC(=O)c4cccs4)c3)nc2s1 -72.8%, Cc1cccc(N(C)S(=O)(=O)c2cc3c(cc2Cl)NC(=O)CO3)c1 -16.6%, CCOc1ccc(NS(=O)(=O)c2ccc3[nH]c4c(c3c2)CCCC4)cc1 -27.8%, Cc1ccc(CNS(=O)(=O)c2ccc3c(c2)CCN3S(C)(=O)=O)cc1 -14.9%, COc1ccc(N(CC(=O)N2CCN(c3cccc(C)c3C)CC2)S(=O)(=O)c2c(C)noc2C)cc1 -30.4%, COc1ccc2nc(N(Cc3cccnc3)C(=O)c3ccc4c(c3)OCCO4)sc2c1 3.19%, CCCSc1ncc(Cl)c(C(=O)Nc2sc3c(c2C(=O)NCCOC)CCCC3)n1 -17.8%, Cc1c(Cl)cccc1NC(=O)CSc1nc(=O)n(Cc2ccccn2)c2c1CCC2 -27.7%, Cc1ccc(-c2c(C(=O)Nc3ccc(F)c(F)c3)oc(=O)c3ccccc23)cc1 -36%, CCn1cc(C(=O)NCc2ccc(C)cc2)c(=O)c2cc(S(=O)(=O)N3CCC(C)CC3)ccc21 -0.58%, CN(C)c1ccc(CNC(=O)c2cc3cc(S(=O)(=O)N4CCCCC4)ccc3n2C)cc1 -30.7%, O=C(CN1C(=O)C2CCCCN2c2ccc(C(=O)N3CCCC3)cc21)NCc1cccc(Cl)c1 (stereo unspecified) -30.1%, Cc1ccc(Cl)c2sc(NC(=O)CS(=O)(=O)c3ccc(Cl)cc3)nc12 -17.5%
